# Measured values taken from PubChem BioAssay AID1508642 (National Center for Advancing Translational Sciences (NCATS), 2021).
# Screen size: about 43,000 compounds; about 200 (0.47%) were called active. Another 12% or so got no clear call; they are omitted. Calls come from the whole dose curve; as a rule, active = well fitted cell-killing curve with a large enough effect; inconclusive = small, poorly fitted or top-dose-only effect, or effect the other way; inactive = flat fitted curve, though single readings scatter. Some of the results follow.
# Test: Cell viability qHTS assay in S16 Pmp22-F2sN cells; note: nearly all actives have a fitted effect of over 65% in size
# Conditions: S16 Pmp22-F2sN Schwann cells viability, CellTiter-Glo, 24 h; series mostly up to 57.5 µM; activity change, negative = cytotoxicity: at the top concentration
# In short: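 Used to flag compounds lowering reporter output through toxicity, this quantitative HTS measures ATP-based CellTiter-Glo luminescence in S16 Pmp22-F2sN Schwann cells after 24 h compound exposure at 37C.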
# % is set by controls: 0 for no effect and ±100 for the full control effect.
row,Structure (SMILES),"activity change, negative = cytotoxicity"
1,COc1cccc(C(=O)c2cn(CC(=O)Nc3cc(Cl)c(OC)cc3OC)c3nc(C)ccc3c2=O)c1,inactive: 2.59%
2,Cc1cccc(C)c1NC(=O)NCCCN1CCN(c2ccccc2)CC1,inactive: -24%
3,CC(C)(C)c1ccc(C(=O)NNc2ncnc3c2cnn3-c2ccc(Cl)cc2)cc1,inactive: 1.54%
4,COc1cc(CN(C(=O)COc2ccc(Cl)cc2)c2ccccn2)cc(OC)c1OC,inactive: -1.12%
5,Cc1ccc(C)c(NC(=O)C2CCN(c3ncnc4c3nc3n4CCCCC3)CC2)c1,inactive: -6.63%
6,Cc1ccc(C)c(NC(=O)CCCn2c(C)c3cnn(-c4ccccc4)c(=O)c3c2C)c1,inactive: -7.26%
7,CCc1ccc(NC(=O)CSc2nc(C)c(C(=O)Nc3ccc(Cl)cc3)c(-c3ccc(OC)cc3)c2C#N)cc1,inactive: -1.28%
8,CNC(=O)C1CCC(Cn2c(=O)c3sccc3n(CC(=O)NCc3ccc(C)cc3)c2=O)CC1 (stereo unspecified),inactive: 1.01%
9,Cc1cc(C)c2c(n1)SCC(=O)N2CC(=O)Nc1ccccc1C,inactive: -0.459%
10,Cn1c(=O)oc2cc(S(=O)(=O)N3CCCC(C(=O)NCc4ccccc4Cl)C3)ccc21 (stereo unspecified),inactive: 2.58%
11,COc1ccc(NC(=O)Cn2c(=O)oc3cc(Cl)ccc32)c(OC)c1,inactive: 10.1%
12,O=C(CSc1nc2c([nH]c3ccccc32)c(=O)n1-c1ccccc1)N1CCCc2ccccc21,inactive: 2.35%
13,Cc1ccccc1C(=O)Nc1sc2c(c1C(=O)O)CCC(C(C)(C)C)C2 (stereo unspecified),inactive: -4.33%
14,O=C(CSc1nc2c([nH]c3ccccc32)c(=O)n1-c1ccc(F)cc1)NCC1CCCO1 (stereo unspecified),inactive: 5.38%
15,COc1ccc(-c2cn3c(n2)sc2cc(C(=O)Nc4c(C)cccc4C)ccc23)cc1,inactive: 3.02%
16,Cc1ccc(CNC(=O)C2(c3cccs3)CCOCC2)cc1,inactive: 14.7%
17,Cc1cc(C)cc(Nc2nc3ccccc3nc2-n2nc(C)cc2C)c1,inactive: -12.5%
18,CCOC(=O)N1CCc2c(sc3c2c(=O)n(Cc2ccccc2)c(=O)n3CC(=O)Nc2cccc(C)c2)C1,inactive: -2.29%
19,CCOc1ccc(NC(=O)CSc2ncnc3c2sc2ccccc23)cc1,inactive: -7.93%
20,COc1ccc(C(=O)n2nc(-c3ccc(Cl)cc3)nc2NCc2ccco2)cc1,inactive: 3.61%
21,CN(C)S(=O)(=O)c1ccc(C(=O)Nc2c(C(=O)Nc3ccc(F)cc3)oc3ccccc23)cc1,inactive: 5.2%

row,Structure (SMILES),"activity change, negative = cytotoxicity"
1,CCc1ccc(NC(=O)c2cc3c(COC(C)=O)cnc(C)c3oc2=O)cc1,inactive: 0.711%
2,CCCCC(=O)Nc1cc(-c2nc3cccnc3s2)ccc1C,inactive: -1.93%
3,O=C(c1ccccc1)c1ccc2nc(N3CCN(c4ccccc4)CC3)c3nncn3c2c1,inactive: -0.836%
4,Cc1ccc(CNC(=O)c2ccc3c(c2)NC(=O)C(CS(=O)(=O)Cc2ccc(F)cc2)N3)cc1 (stereo unspecified),inactive: -2.18%
5,COc1ccccc1C(=O)Nc1c(C(=O)N2CCN(c3ccccc3F)CC2)oc2ccccc12,inactive: 7.04%
6,COc1ccc(NC(=O)CCCSc2nc(-c3ccco3)cc(C(F)(F)F)n2)cc1,inactive: 3.3%
7,Cc1ccc(NC(=O)c2ccc(COc3ccccc3Cl)o2)cc1,inactive: -9.39%
8,Cc1cc2c(cc1S(=O)(=O)NCc1ccccc1)OCC(=O)N2,inactive: 0.579%
9,CCC1CCCCN1CCCNC(=O)c1cn(CC)c2ccc(S(=O)(=O)N(C)C3CCCCC3)cc2c1=O (stereo unspecified),inactive: -20.1%
10,Cc1nc2ccc(S(=O)(=O)CCC(=O)Nc3ccc(C(C)C)cc3)cc2s1,inactive: -2.15%
11,CCS(=O)(=O)N1CCC2(CC1)OC(=O)C(C)=C2C(=O)NCc1cccc(Cl)c1,inactive: 27.6%
12,CCn1c(COc2cccc(C)c2)nc2ccccc21,inactive: -3.88%
13,O=S(=O)(c1ccc(Br)cc1)c1nc(-c2cccs2)oc1SCc1ccc(F)cc1,inactive: -6.38%
14,Cc1[nH]c2ccc(C(=O)Nc3ccc(F)cc3)cc2c1C,inactive: -28.8%
15,Cc1ccccc1CN1C(=O)c2ccccc2S(=O)c2ccc(C(=O)NCc3ccco3)cc21 (stereo unspecified),inactive: -3.07%
16,CCN(C(=O)CCS(=O)(=O)c1ccc2c(c1)oc(=O)n2C)c1ccc(OC)cc1,inactive: -20.4%
17,Cc1ccc(NC(=O)CSc2nc3c(c(=O)[nH]2)CCC3)cc1Cl,inactive: -6%
18,CCn1c(SCC(=O)Nc2ccccc2)nc2c([nH]c3ccccc32)c1=O,inactive: 21.1%
19,CC(C)CCNC(=O)CCC(=O)N1Cc2ccccc2Oc2ncccc21,inactive: -0.126%
20,COc1cc2c(cc1NC(=O)COc1ccc(Br)cc1C)oc1ccccc12,inactive: 0.182%
21,Cc1ccc(C)c(N2CCN(C(=O)C3CCN(C(=O)c4cc5sccc5n4C)CC3)CC2)c1,inactive: -24.8%

row,Structure (SMILES),"activity change, negative = cytotoxicity"
1,COc1cccc(-n2c(=O)c3cc(OC)c(OC)cc3n(CC(=O)Nc3ccccc3)c2=O)c1,inactive: 13.4%
2,O=C(c1ccc2c(c1)N(Cc1ccc(F)cc1)C(=O)c1ccccc1S2(=O)=O)N1CCCCCC1,inactive: -11.9%
3,CCOc1ccc(NC(=O)CSC2=Nc3ccccc3C3=NC(CC(=O)NCc4ccccc4OC)C(=O)N23)cc1 (stereo unspecified),inactive: 6.13%
4,Cc1ccc(N2CC(NC(=O)c3ccco3)CC2=O)cc1 (stereo unspecified),inactive: 2.69%
5,Cc1ccc(S(=O)(=O)Nc2ccc3[nH]c(=O)sc3c2)cc1C,inactive: -16.1%
6,O=C(c1ccc2c(c1)N(Cc1ccc(Cl)cc1)C(=O)c1ccccc1S2(=O)=O)N1CCC(Cc2ccccc2)CC1,inactive: 20.4%
7,Cc1ccc(S(=O)Cc2ccc(C(=O)NC3CCCCCC3)o2)cc1 (stereo unspecified),inactive: -6.82%
8,Cc1ccc(C)c(S(=O)(=O)c2cn(C)c3cc(F)c(F)cc3c2=O)c1,inactive: 8.78%
9,CC(=O)Nc1ccccc1-c1nc2ccccc2n(CC(=O)Nc2ccc(C)c(Cl)c2)c1=O,inactive: -9.61%
10,COc1ccc(CCn2c(=O)c3ccccc3n(CC(=O)Nc3cccc(C)c3)c2=O)cc1OC,inactive: 8.01%
11,O=C(NCc1ccc2c(c1)OCO2)c1ccc2c(c1)N(Cc1ccccc1F)C(=O)c1ccccc1S2=O (stereo unspecified),inactive: -6.47%
12,CCc1nnc(NC(=O)c2nc(SC)ncc2Cl)s1,inactive: 5.9%
13,CCSc1oc(-c2cccs2)nc1S(=O)(=O)c1ccc(Br)cc1,inactive: -0.664%
14,NC(=O)CSc1nc2c(oc3ccccc32)c(=O)n1Cc1ccccc1,inactive: -2.79%
15,Cc1ccccc1C(=O)Nc1c(C(=O)Nc2cccc(F)c2)oc2ccccc12,inactive: -1.77%
16,COc1ccccc1CNC(=O)C1CCN(C(=O)c2sccc2-n2cccc2)CC1,inactive: -1.72%
17,CN(C1CCCCC1)S(=O)(=O)c1ccc2c(c1)c(=O)c(C(=O)NCc1ccc(F)cc1)cn2C,inactive: 5.36%
18,CCn1ccc2c(OCC(=O)Nc3ccc(C(C)=O)cc3)cccc2c1=O,inactive: -4.09%
19,COc1ccccc1CNC(=O)c1cc2c(-c3ccc(Cl)cc3)nn(C)c2s1,inactive: -10.8%
